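Growth conditions: 96-well plates. Treatment: test compound, 48 hours, 5 concentrations. Analysis: linear interpolation between bracketing concentrations; unreached endpoints set to highest concentration. Abbreviation: GI50, concentration required for 50% inhibition of growth.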 Calls of active or inactive are those of the source. Rule as the data show it: active = GI50 up to about 1.1 µM and inactive = higher.

The assay relates to NCI-H322M. Put plainly: growth of human tumour cells (NCI), 48 h.
As to `COc1cc(Nc2n[nH]c(NS(=O)(=O)c3cc(C)c(Cl)cc3S)n2)cc(OC)c1OC`, the GI50 was inactive: > 100 µM. Regarding `NC1=C(Cl)C(=O)c2ccccc2C1=O`, the GI50 is inactive: 7.83 µM.

Turning to `C/C(=C\c1ccc2c(c1)OCO2)[N+](=O)[O-]`, the GI50 is inactive: 13.8 µM. The result for `OC(c1ccccc1)(c1ccccc1)c1nccc2ccccc12` reads inactive: 52 µM; that for `COC1OC(CBr)C(OC(c2ccccc2)(c2ccccc2)c2ccccc2)C(OC(c2ccccc2)(c2ccccc2)c2ccccc2)C1OC(c1ccccc1)(c1ccccc1)c1ccccc1` (configuration not stated), inactive: 42.2 µM.

As to `COc1cccc(N2C(=O)c3c(c4[nH]c5ccccc5c4c4ccc(C(C)(C)C)cc34)C2=O)c1`, the GI50 is inactive: > 100 µM. The result for `C=CC(=O)C#CC#CC/C=C\CCCCCCC` reads inactive: > 20.6 µM. As to `N=c1nc(N)nc(N)n1-c1ccc(S(N)(=O)=O)cc1`, the GI50 is inactive: > 100 µM. The result for `CCOC(=O)CC1COc2ccc3c(c21)OCO3` (configuration not stated) reads inactive: > 100 µM. The result for `COC(=O)N/N=C(/c1nc2ccc([N+](=O)[O-])cc2nc1O)C(O)c1ccc(OC)c(OC)c1` (configuration not stated) reads inactive: > 100 µM. The result for `O=C(/C=C/c1ccc(Cl)c(Cl)c1)c1ccc(F)cc1` reads inactive: 47 µM. With `N/C(=N\N=C\c1c[nH]c2ccccc12)Nc1ccccc1`, the GI50 was active: 0.453 µM. On to `C/C(=N\NC(=S)N1CCOCC1)c1nc2cccnc2[nH]1`, for which the GI50 is inactive: 36.8 µM. On to `[O-][S+](Nc1ccccc1)c1ccc(N2CCOCC2)cc1` (configuration not stated), for which the GI50 is inactive: > 100 µM.

For the molecule `O=S(=O)(c1ccccc1)C1(C2(S(=O)(=O)c3ccccc3)CCN=N2)CCN=N1` (configuration not stated), the GI50 is inactive: > 100 µM.

Consider `CN(C)CC(C)(C)C(=O)/C=C/c1ccc(/C=C/C(=O)C(C)(C)CN(C)C)cc1`, for which the GI50 was inactive: 1.48 µM. The result for `CCc1c(N=[N+]=[N-])c2ccccc2oc1=O` reads inactive: > 100 µM; that for `CC(=O)Nc1ccc(-c2nnc(SCC(=O)Nc3ccc(Cl)cc3)o2)cc1`, inactive: 16 µM; that for `CCN(CC)CCNC(=O)c1nn(-c2ccc(Cl)cc2)c2c1CCc1cc(OC)ccc1-2`, inactive: 9.1 µM.

`COc1ccccc1C1C2=C(COC2=O)Oc2cc3c(cc21)OCO3` (configuration not stated): the GI50 was inactive: 4.43 µM. The result for `COc1ccc(N2CN3OC(=O)N(c4ccc(OC)cc4)[C@@]3(c3ccccc3)C2)cc1` reads inactive: 35.2 µM; that for `CCCC(=O)NC(NC1CCCCC1)(C(=O)OCC)C(F)(F)F` (configuration not stated), inactive: > 100 µM; that for `O=c1c(=O)c2c(Br)sc(Br)c2c1=O`, inactive: > 100 µM. The result for `COc1cc2c(c(OC)c1OC)-c1ccc(OC)c(=O)cc1C(NC(=O)COc1ccccc1)CC2` (configuration not stated) reads active: < 0.01 µM; that for `CC(=O)O[C@@H]1C(=O)N(c2ccccc2)[C@@H]1c1cc2ccccc2c2ccccc12`, inactive: 55 µM.

On to `O=C(NC(Cc1ccccc1)P(=O)(O)c1ccccc1)OCc1ccccc1` (configuration not stated), for which the GI50 was inactive: > 100 µM. The result for `O=c1c2cccnc2[nH]c2ccc3scnc3c12` reads inactive: 9.14 µM; that for `CCCNC(=O)CCC(C)C1CCC2C3C(C[C@H](OC(C)=O)[C@]12C)[C@@]1(C)CCC2(C[C@H]1C[C@H]3OC(C)=O)OOC1(CC[C@]3(C)C4C[C@H](OC(C)=O)[C@]5(C)C(C(C)CCC(=O)NCCC)CCC5C4[C@H](OC(C)=O)C[C@@H]3C1)OO2` (some centres not stated), inactive: > 100 µM.

As to `O=C(ON=C1c2ccccc2C(Br)C(Br)c2ccccc21)c1cc([N+](=O)[O-])cc([N+](=O)[O-])c1` (configuration not stated), the GI50 is inactive: 25.2 µM. The result for `Cc1ccc(/C=N/n2c(-c3ccc(C)cc3)n[nH]c2=O)cc1` reads inactive: 32.1 µM; that for `CC1=CC2CCC1(C)C/C2=C(/C)OC=O` (configuration not stated), inactive: > 100 µM; that for `O=C(NN1C(=O)CSC1c1ccc(Cl)c(Cl)c1)c1ccncc1` (configuration not stated), inactive: 51.2 µM. The result for `CSc1nc2c(nc(C)c(=O)n2C2OCC(OC(C)=O)C(OC(C)=O)C2OC(C)=O)c(=O)[nH]1` (configuration not stated) reads inactive: > 100 µM; that for `O=C([O-])C[n+]1ccccc1.c1ccncc1`, inactive: > 100 µM; that for `O=c1c2cc(S(=O)(=O)O)ccc2nc(COc2ccc(Oc3ccc(Cl)cc3Cl)cc2)n1-c1ccc(Cl)cc1Oc1c(Cl)cccc1Cl`, inactive: 38.5 µM. The result for `COc1cc(C2C(C(=O)O)=C(CO)Oc3cc4c(cc32)OCO4)cc(OC)c1O` (configuration not stated) reads inactive: > 100 µM; that for `O=S(=O)(/N=C(\NO)Nc1ccc(Cl)cc1)c1cccc2nsnc12`, inactive: 29.2 µM. In the case of `O=C1c2ccccc2CC12Cc1cc3c(cc1C2)CCC3`, the GI50 is inactive: 58.5 µM. The result for `O=c1cc(NNc2ccc(F)cc2)[nH]c(=O)[nH]1` reads inactive: 32.3 µM. For `Cc1[nH]c2cc([N+](=O)[O-])ccc2c1[N+](=O)[O-]`, the GI50 is inactive: 22.2 µM. The result for `CC(=O)NNc1nc(C)c(C(/C=C/c2ccc(Cl)cc2)=N\N=C(N)N)s1` reads inactive: > 100 µM; that for `NC(=O)C1N=NSC1NC(=O)c1ccc([N+](=O)[O-])cc1` (configuration not stated), inactive: 71 µM; that for `Nc1ncc(Sc2ccccc2C(=O)O)s1`, inactive: > 100 µM. As to `COc1ccc2nc3ccc(OC)cc3c(SCc3ccccc3)c2c1`, the GI50 was inactive: > 35.7 µM. The result for `CC12C(=O)N(CCN)C(=O)C1C1c3ccccc3C2c2ccccc21` (configuration not stated) reads inactive: > 100 µM; that for `O=C(NN=C1CCCCC1)NN=C1CCCCC1`, inactive: > 100 µM. The result for `COc1ccc2c(c1)CCCC1C3=NCCC3(C)CSC21` (configuration not stated) reads inactive: > 100 µM. The result for `O=c1[nH]nc(-c2ccccc2)n1/N=C/c1ccco1` reads inactive: > 100 µM.

Regarding `CC(C)NCCCNc1c2ccccc2nc2cccc([N+](=O)[O-])c12`, the GI50 was active: 0.0182 µM. The result for `CC(=O)Nc1nc(C)c(S(=O)(=O)NC(=O)NC2NC(=O)NC2=O)s1` (configuration not stated) reads inactive: > 100 µM. The result for `CC(=O)OCC1OC(n2c(C)c(C)c(C)c(C#N)c2=S)C(OC(C)=O)C(OC(C)=O)C1OC(C)=O` (configuration not stated) reads inactive: > 100 µM. The result for `OCc1ccccc1C1CSCSC1` reads inactive: > 100 µM. Consider `CCCCCCCCCCCCCCCCCCOP1(=O)OCCO1`, for which the GI50 is inactive: 81.1 µM.

`O=C(O)[C@@H]1C[C@@H](O)CN1C(=O)OCc1ccccc1`: the GI50 is inactive: > 100 µM. The result for `CCC1CCC2C3CC=C4CC(OC(C)=O)C(N)CC4(C)C3CCC12C` (configuration not stated) reads inactive: 3.49 µM.

As for `CN(C)CCCNc1ccnc2cc([N+](=O)[O-])ccc12`, the GI50 was inactive: 12.1 µM. The result for `CCOC(=O)C(O)(NC(=O)Nc1ccc(F)cc1)C(F)(F)F` (configuration not stated) reads inactive: > 100 µM. The result for `Clc1cc(OCc2nn3c(Cc4ccccc4)nnc3s2)ccc1OCc1nn2c(Cc3ccccc3)nnc2s1` reads inactive: 61.4 µM; that for `COc1ccc(Nc2nc(N)c(C(=O)c3ccco3)s2)cc1`, inactive: > 57.1 µM. For `CC(=O)Nc1ccc(C(=O)NN2C(=O)CSC2c2ccc([N+](=O)[O-])cc2)cc1` (configuration not stated), the GI50 is inactive: > 100 µM. On to `CCN(CC)C(=S)SNCCc1ccc(S(N)(=O)=O)cc1`, for which the GI50 was inactive: > 52.7 µM. The result for `CCc1ccccc1NC(=O)C1=C(C)NC(C)=C(C(=O)Nc2c(CC)cccc2CC)C1c1ccc2c(c1)OCO2` (configuration not stated) reads inactive: 22.4 µM; that for `O=c1n(CCCCn2c(=O)n(CC3CS3)c3ccccc32)c2ccccc2n1CC1CS1` (configuration not stated), inactive: 40.8 µM; that for `O=C(c1ccccc1)c1nc2ccc(Cl)cc2cc1C(Br)Br`, active: 0.305 µM. The result for `OC(CC1CCCCN1)c1ccc2c(c1)oc1ccccc12` (configuration not stated) reads inactive: > 100 µM; that for `Fc1cccc(/C=N/C23CC4CC(CC(C4)C2)C3)c1`, inactive: > 100 µM. In the case of `O=C1C(Br)=CC2(C=C1Br)CCNC1=C2C(=O)c2ncccc2C1=O`, the GI50 is inactive: 1.49 µM.

Regarding `Cc1c(N)nc(C(CC(N)=O)NCC(N)C(N)=O)nc1C(=O)NC(C(=O)NC(C)C(O)C(C)C(=O)NC(C(=O)NCCc1nc(-c2nc(C(=O)NCCCNC(C)c3ccccc3)cs2)cs1)C(C)O)C(OC1OC(CO)C(O)C(O)C1OC1OC(CO)C(O)C(OC(N)=O)C1O)c1c[nH]cn1` (configuration not stated), the GI50 is inactive: 41 µM. The result for `COc1ccc(/C=N/Nc2nc3ccccc3c(=O)n2-c2ccccc2)c(OCc2ccccc2)c1` reads inactive: > 100 µM; that for `COC(CN1C=C(Sc2ccccc2)CC1)OC`, inactive: 39.8 µM; that for `CN(C)CC1CCCc2ccccc2C1=O` (configuration not stated), inactive: 13.6 µM. The result for `O=[N+]([O-])C(Cl)=C/C(=C(\Cl)SCc1ccccc1)[N+](=O)[O-]` reads inactive: 33.3 µM; that for `CCC1OC2C(CC=C(C)C)=C3OC(C)(O)C(C)(CC)C(O)C3=C3OC(=O)C=C1C32` (configuration not stated), inactive: 50.6 µM; that for `NCCC1([N+](=O)[O-])C=CN=CC1` (configuration not stated), inactive: > 100 µM. The result for `O=C(CC1(O)C(=O)Nc2c(Cl)ccc(Cl)c21)c1ccc(F)cc1` (configuration not stated) reads inactive: 89.5 µM. In the case of `NC(N)=NCCC(O)(P(=O)(O)O)P(=O)(O)O`, the GI50 is inactive: > 100 µM. The result for `O=C1c2c(c3c4ccccc4[nH]c3c3[nH]c4ccccc4c23)C(=O)N1Cc1ccccc1` reads inactive: 3.24 µM.

As to `CC(=O)Nc1ccc(S(=O)(=O)Nc2cnc3ccccc3n2)cc1`, the GI50 was inactive: > 100 µM. The result for `C[C@@H]1CC(=O)[C@@]2(C)[C@](O)(CCC3O[C@]32C)[C@@]12CC(c1ccoc1)OC2=O` (some centres not stated) reads inactive: > 100 µM. The result for `COc1c2c(c3c(c1C1OC(C)[C@@H](C)O1)CC(C)(C)O3)C(=O)c1ccccc1C2=O` (some centres not stated) reads inactive: > 100 µM; that for `COC(=O)[C@H](Cc1c[nH]c2ccccc12)NP(=O)(OCCC#N)OCC1OC(n2cc(C)c(=O)[nH]c2=O)CC1N=[N+]=[N-]` (some centres not stated), inactive: > 100 µM; that for `Cc1occc1/C(S)=N\c1ccc(Cl)c(COC(C)(C)C)c1`, inactive: 17.2 µM.

Values taken from ChEMBL document CHEMBL1201862, “PubChem BioAssay data set” (2004).
